Experimental data as given in the RNAGym collection of RNA variant scans (doi:10.7554/elife.90254).
The source gives no read counts; variants with many changes may rest on few reads.

B1: OR4K15 (parent)
chain: GUUAACGGUCAUAGGCCAUGGAAACUAGGAGCACCAUUUCGCUGCCAGUGAAGAAAUGAACAAAGAAAAUCUGGGCCAGGCAGGCAUCAAAAGAAAUAGUCUUGCGCUCAACCAGAAAGUCUGUAAUCAUUUUAAGGGUA

Variants of: B1
Experiment: self-cleavage, relative activity (ratio to wild type); higher = more cleavage; in vitro, sequencing; the parent is a self-cleaving ribozyme

Row | Variant | self-cleavage
1 | U49C A62G A140G | 0.66
2 | U49C A62U A66G U72A U122G | 0.4
3 | U49C A62U A116G | 0.86
4 | U49C A63G A64U A116U U122C | 0.19
5 | U49C A63G A69C A118U | 0.55
6 | U49C A64G A126U | 0.82
7 | U49C A66G A68G U131C A135G | 0.15
8 | U49C A66G A91U U131C | 1.36
9 | U49C A66G A92G A117G | 1.44
10 | U49C A66G A135G | 1.25
11 | U49C A67G U122C | 1.5
12 | U49C A68C A82G | 0.23
13 | U49C A68G A82U A111G | 0.01
14 | U49C A68U U139C | 0.96
15 | U49C A69G A110G | 0.15
16 | U49C A78C U87A A92G A135G | 0.37
17 | U49C A78G U122C | 0.13
18 | U49C A78U A90G A91G | 0.15
19 | U49C A82G A94G U122C A134C | 0.28
20 | U49C A82G U139C | 0.41
21 | U49C A82U U87C A125G | 0.01
22 | U49C A82U U103A U120C | 0.09
23 | U49C A86G A90G A92G | 0.51
24 | U49C A86G A92G | 0.86

Row | Variant | self-cleavage
25 | U49C A86G A110G | 0.04
26 | U49C A86U A96G U131C | 0.9
27 | U49C A86U U102A | 0.82
28 | U49C A89G A125G U133C | 0.61
29 | U49C A90G A91G | 0.6
30 | U49C A91G A117G | 1.34
31 | U49C A94U A117G | 0.76
32 | U49C A95U A126G | 1.39
33 | U49C A98G A116G | 0.1
34 | U49C A98G U108C | 0.01
35 | U49C A117G A118G U139A A140G | 1.95
36 | U49C C85U C109U | 0.6
37 | U49C C88A A114U U122C | 0.02
38 | U49C G79U A92G A114U | 0.03
39 | U49C G84A U100C | 0.34
40 | U49C G84A U100C C109A | 0.1
41 | U49C U57C A91G A111G | 0.02
42 | U49C U57C U132A | 0.2
43 | U49C U70C U127C | 0.27
44 | U49C U72A A116G | 0.13
45 | U49C U72C U100C | 0.28
46 | U49C U72C U127C | 0.08
47 | U49C U87A A126C A129G | 0.56
48 | U49C U100C U103A A110G | 0.11

Row | Variant | self-cleavage
49 | U49C U102C A134G | 1.75
50 | U49C U103A U108C A114U | 0.01
51 | U49C U131C U133C G136A | 1.26
52 | U49C U139G A140U | 0.96
53 | U49G A51G A114C | 0.06
54 | U49G A60G A95G A116U | 0.64
55 | U49G A62G A63G | 1.18
56 | U49G A67G U72C | 0.16
57 | U49G A67G U72C U130C | 0.22
58 | U49G A95G A118G | 1.53
59 | U49G U57C U97C U122G U127C | 1.61
60 | U49G U87C U108C | 0.01
61 | U49G U120C C121U | 1.29
62 | G50A A69G C109U | 0.35
63 | G50A A69U A82G U120A | 0.58
64 | G50A A91G U103A G136A | 0.47
65 | G50A A95G G99U | 0.53
66 | G50A U87C A94U | 1.84
67 | G50A U108C A114U | 0.02
68 | G50C A56G U102C | 1.81
69 | G50U A62G A126U | 1.73
70 | G50U U72A U103C U131C | 0.08
71 | A51C A52G A55G A78G U87C A111G | 0.03
72 | A51C A54G A135G | 0.89

Row | Variant | self-cleavage
73 | A51C A91G U100A A118G A135G | 0.23
74 | A51C G79A A94G | 0.15
75 | A51C U57C U102C U127A | 2.21
76 | A51C U102C A118G | 1.47
77 | A51G A52G A55U A140G | 2.06
78 | A51G A52G A86G | 1.93
79 | A51G A52G A86U | 0.94
80 | A51G A52G A91G | 0.95
81 | A51G A52G A114U | 0.25
82 | A51G A52G A116G U127A | 0.28
83 | A51G A52G U103C U120C | 0.66
84 | A51G A52U A56G U103C A135U | 0.56
85 | A51G A52U A60G A63U | 0.76
86 | A51G A52U A67G A110G | 0.15
87 | A51G A52U A118G U122C | 0.41
88 | A51G A54G A64G A69G U120A A135G | 1.47
89 | A51G A54G A91G U139A | 0.82
90 | A51G A54G A110G | 0.2
91 | A51G A54G A114U | 0.08
92 | A51G A54G U57C A98G U122G A125G | 0.22
93 | A51G A54G U100G | 0.34
94 | A51G A54U A59G A117G | 0.81
95 | A51G A54U A60G A91G | 0.3
96 | A51G A54U U103A U124C | 0.26

Row | Variant | self-cleavage
97 | A51G A55G C61U C77A A114G | 0.26
98 | A51G A55G U87C | 0.86
99 | A51G A56G A60U U72A | 0.48
100 | A51G A56G A94G U131C | 0.88
101 | A51G A59G A94G U132A | 0.93
102 | A51G A59G C77U A126G | 1.65
103 | A51G A59U A60G A67G U127C | 0.3
104 | A51G A59U A116G | 0.54
105 | A51G A59U U132C | 1.68
106 | A51G A60G A69G U103C | 0.3
107 | A51G A60G A86G A111G | 0.04
108 | A51G A62G U139C | 0.84
109 | A51G A62U A78G | 0.45
110 | A51G A62U A96U A111G A114G | 0.03
111 | A51G A63G A67U A82G A95G A117G A126U | 0.53
112 | A51G A63G A110G | 0.15
113 | A51G A63U A86G C107U A116G | 0.03
114 | A51G A64G A118G | 0.63
115 | A51G A64G G74A A111G | 0.02
116 | A51G A64G U103A | 0.38
117 | A51G A66G A69G A118G | 0.67
118 | A51G A66G A82U | 0.31
119 | A51G A66G A126G | 1.14
120 | A51G A66G U70C U100C U124A | 0.6

Row | Variant | self-cleavage
121 | A51G A66G U132C | 0.81
122 | A51G A69G A116G | 0.33
123 | A51G A69U A96G A111G A118G | 0.01
124 | A51G A78C U131C | 0.34
125 | A51G A78U A82G A95G U130C | 0.1
126 | A51G A78U A95G A114G | 0.35
127 | A51G A78U U132C U139C | 0.58
128 | A51G A82G A118G U131C | 0.05
129 | A51G A82U A111G | 0.02
130 | A51G A82U U120C | 0.13
131 | A51G A86G U87C A96G A116G | 0.37
132 | A51G A89G A92G | 1.88
133 | A51G A89G A94G | 1.74
134 | A51G A89G A126G | 0.67
135 | A51G A89G G137U | 1.16
136 | A51G A89U A110G | 0.03
137 | A51G A90G A92G U120C | 0.25
138 | A51G A90G U132C | 2.14
139 | A51G A91G U122G | 2.43
140 | A51G A91U U139C | 1.74
141 | A51G A92G A126U | 1.46
142 | A51G A94G A111G | 0.01
143 | A51G A94G A116G A129G | 1.02
144 | A51G A94G A117G U124C | 0.74

Row | Variant | self-cleavage
145 | A51G A95G U108C U130C | 0
146 | A51G A96G A140G | 1.76
147 | A51G A110C A114G | 0.08
148 | A51G A111G A114G | 0.01
149 | A51G A117U U127C A134G | 0.37
150 | A51G A126C U130C U139C | 0.48
151 | A51G A126G U139C A140C | 0.34
152 | A51G C81U U127C | 0.01
153 | A51G G53U A82G | 0.51
154 | A51G G65A A118G | 1.44
155 | A51G G79A C105U | 0
156 | A51G G99A G123C | 0.34
157 | A51G U57A A91G G136A U139C | 0.07
158 | A51G U57C A118U A129G | 0.15
159 | A51G U70A C88U U120A U139C | 0.96
160 | A51G U70C A86C U108C | 0.03
161 | A51G U70C A94G | 0.96
162 | A51G U70C A117G | 2.17
163 | A51G U70C G138A | 0.45
164 | A51G U72A A114U | 1.45
165 | A51G U87C A94U U131C | 0.51
166 | A51G U87C A129G | 1.46
167 | A51G U87C U100C | 2.61
